From PubChem BioAssay AID493208 (National Center for Advancing Translational Sciences (NCATS), 2011)
In all, about 44,000 compounds went through this assay and about 340 (0.77%) were called active. Roughly 5% stayed inconclusive and do not appear here. Calls come from the whole dose curve; as a rule, active = well fitted inhibition curve with a large enough effect; inconclusive = small, poorly fitted or top-dose-only effect; inactive = flat fitted curve, though single readings scatter. This is one part of the list.

Experiment: Acumen qHTS Assay for Inhibitors of the mTORC1 Signaling Pathway in MEF (Tsc2-/-, p53-/-) Cells: Sytravon; note: nearly all actives have a fitted effect of over 50% in size;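 for activity change, negative = inhibition: plate controls were DMSO for no effect and rapamycin for full effect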
Details: phospho-rpS6 immunofluorescence/PI, 24 h; series mostly up to 38.3 µM; activity change, negative = inhibition: at the top concentration
Outline: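 Tsc2-/-, p53-/- MEFs (empty-vector stable line) in DMEM + 10% FBS were treated with compounds 24 h at 37 degree Celsius, fixed, and immunostained for phospho-rpS6 (Alexa-488) with propidium iodide counterstain. Laser-scanning cytometry gave % positive cells, normalized against 7.5 nM rapamycin and DMSO.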
Potency is the fitted concentration of half-maximal effect.

SMILES	activity change, negative = inhibition	Potency
O=C(Nc1ccc(Br)cc1)C1CCCN1S(=O)(=O)c1ccc(F)cc1 (configuration not stated)	inactive: 0.185%	
CC(C)(C)c1ccc(C(=O)Nc2sc3c(c2C#N)CCC(C(C)(C)C)C3)cc1 (configuration not stated)	inactive: 8.9%	
CCOc1ccc(NC(=O)Cn2c(=O)n(CC(=O)NCc3ccccc3Cl)c(=O)c3sccc32)cc1	inactive: -22.8%	
COc1cc(OC)c(NS(=O)(=O)c2c(C(=O)N3CCC(C)CC3)c(C)n(C)c2C)cc1Cl	inactive: 0%	
Cc1cc(Nc2ccc(C(=O)O)c(O)c2)n2ncnc2n1	inactive: -8.59%	
COc1ccc(CCNC(=O)CCn2c(=O)c3ccccc3n(Cc3ccccc3)c2=O)cc1OC	inactive: -7.26%	
CC(C)c1nn2c(=O)cc(COC(=O)c3ccccc3NC(=O)c3cccc(Cl)c3)nc2s1	inactive: 5.54%	
Cc1nc2ccn(Cc3cccnc3)c(=O)c2cc1C(=O)N1CCN(c2ccc(F)cc2)CC1	inactive: -7.49%	
COC(=O)c1ccccc1NC(=O)c1cnc2c(-c3cccc(C)c3)c(C)nn2c1C	inactive: -4.05%	
CCc1ccc(C(=O)c2cn(Cc3ccc(F)cc3)c3cc(OC)c(OC)cc3c2=O)cc1	inactive: -8.12%	
COc1ccc(CCNC(=O)C(C)n2c(=O)cc(C(F)(F)F)c3c(C)nn(C)c32)cc1OC (configuration not stated)	inactive: -8.55%	
Cc1cc(C)cc(Oc2nc3c(C)cccn3c(=O)c2/C=C(\C#N)c2nc3ccccc3s2)c1	inactive: -29.7%	
COc1ccc(N2CCN(Cc3nnc(-c4cccc(Br)c4)o3)CC2)cc1	inactive: 0.066%	
CCS(=O)(=O)N1CC(=O)N(c2ccc(Cl)cc2)C(C)(C(=O)NC2CCCCCC2)C1 (configuration not stated)	inactive: -4.48%	
COc1ccc(CCn2c3c(c(=O)[nH]c2=O)C(NC(=O)c2ccc(C(C)(C)C)cc2)(C(F)(F)F)C(=O)N3)cc1OC (configuration not stated)	inactive: -18.9%	
COc1ccccc1Cc1nc2ccccc2nc1SCC(=O)N1CCN(c2ccccc2)CC1	inactive: 0%	
Cc1ccc(C(C)C)c(OCCSc2nc3ccccc3n2CC(O)CO)c1 (configuration not stated)	inactive: -0.207%	
CC(=O)c1cc(-c2ccc(F)cc2)n(CC(=O)Nc2cc(C)cc(C)c2)c1C	inactive: 0.851%	
COc1cccc(NC(=O)/C(C#N)=C/c2c(C)n(Cc3ccc(Cl)cc3)c3ccccc23)c1	inactive: 1.38%	
CC(C)Cn1c(-c2ccc(S(=O)(=O)N3CCOCC3)cc2)csc1=Nc1cc(Cl)ccc1Cl	inactive: 5.56%	
O=C(NCc1ccco1)c1ccc2c(c1)N(Cc1ccc(Cl)cc1)C(=O)c1ccccc1S2	inactive: 6.04%	
CCOc1ccc(Nc2nc3c(S(=O)(=O)c4ccc(C(C)C)cc4)nnn3c3ccsc23)cc1	inactive: -0.755%	
Cc1cc2nc(-c3ccc(NC(=O)c4cc5ccccc5o4)cc3)oc2cc1C	inactive: -0.28%	

SMILES	activity change, negative = inhibition	Potency
Cc1sc2ncn(CC(=O)Nc3ccc(C(C)C)cc3)c(=O)c2c1S(=O)(=O)N1CCN(c2ncccn2)CC1	inactive: -18.2%	
CC1(C)N=C(SCc2ccccc2Cl)c2ccccc2N1	inactive: -2.66%	
Cc1ccc(S(=O)(=O)c2nnn3c2nc(NC(C)C)c2cc(Cl)ccc23)cc1C	inactive: 0.0473%	
Cc1cccc(-c2noc(-c3cccnc3NCc3ccc(Cl)cc3)n2)c1	inactive: 2.77%	
COc1ccc2c(c1)sc1ncc(C(=O)NCc3ccccc3F)c(=O)n12	inactive: 0.782%	
Cc1ccccc1C(=O)N1CC(=O)Nc2ccc(Cl)cc2C1c1ccccc1 (configuration not stated)	inactive: 5.57%	
O=C(c1cccc(Cl)c1)N1c2nc(-c3ccco3)nn2C2(CCCCC2)[C@@H]2CCCC[C@@H]21	inactive: 0.52%	
CCOc1ccc(NS(=O)(=O)c2ccc(C(=O)N(C)C)s2)cc1	inactive: 14.3%	
C#CCn1c(=NC(=O)c2ccc3c(c2)OCCO3)sc2cc(OC)c(OC)cc21	inactive: 14.2%	
COc1ccc(CCNC(=O)CCCCn2c(=O)c3ccccc3n(CC(=O)Nc3c(C)cccc3C)c2=O)cc1OC	inactive: -6.43%	
CCOC(=O)c1c(C)[nH]c(C)c1S(=O)(=O)NCC(=O)Nc1cccc(C#N)c1	inactive: 6.87%	
COc1ccc(S(=O)(=O)N2CCC(C(=O)Nc3ccccc3)CC2)cc1OC	inactive: -9.26%	
COc1cc(OC)cc(N2C(=O)N(Cc3ccc(C(C)(C)C)cc3)c3ccccc3S2(=O)=O)c1	inactive: -5.65%	
Cc1nn(-c2ccc(N3CCCCC3)nn2)c(C)c1CCC(=O)Nc1ccc(F)cc1F	inactive: 0%	
Cc1nc2ccc(S(=O)(=O)CCC(=O)Nc3ccc(Cl)cc3)cc2s1	inactive: -18.3%	
COc1cccc(NC(=O)CC(=O)Nc2ccc3nc4n(c(=O)c3c2)CCCCC4)c1	inactive: -0.657%	
COC(=O)c1scc(-c2ccc(C)cc2)c1S(=O)(=O)N1CCN(c2ccccc2)CC1	inactive: -14.4%	
Nc1c(C(=O)Nc2ccccc2Cl)c2ccccn2c1C(=O)c1ccccc1	inactive: -6.71%	
CCOc1ccc(NC(=O)c2c(NCc3cccc(OC)c3OC)sc3c2CCC3)cc1	inactive: -6.88%	
CCc1ccc(NC(=O)CN(c2ccc(Cl)cc2)S(=O)(=O)c2ccsc2C(=O)OC)cc1	inactive: -7.55%	
O=C(C1CCCN(S(=O)(=O)c2cccc3nsnc23)C1)N1CCN(c2ccccc2)CC1 (configuration not stated)	inactive: 3.43%	
COc1ccc(OC)c(CNC(=O)c2ccc3c(c2)c(C)c(C)n3Cc2ccc(Cl)cc2)c1	inactive: -6.6%	
CCOC(=O)N1CCN(C(=O)CN(c2ccccc2F)S(=O)(=O)c2ccc(C)cc2)CC1	inactive: 2.44%	

SMILES	activity change, negative = inhibition	Potency
Cc1cc(N2CCC(C)CC2)nc2ccc(NC(=O)Cc3c(F)cccc3Cl)cc12	inactive: 0%	
Cc1ccc(Cn2cc(S(=O)(=O)c3cccc(Cl)c3)c(=O)c3cc(F)c(N4CCCCC4)cc32)cc1	inactive: -5.03%	
Cc1cc(C)cc(NC(=O)CSc2nc(=O)n(CCN3CCOCC3)c3c2CCC3)c1	inactive: -0.601%	
COC(=O)c1c(NC(=O)Cc2coc3cc(C)ccc23)sc2c1CCC2	inactive: -0.848%	
Cc1ccc(Cl)cc1NC(=O)CSc1nccn1C	inactive: -0.692%	
O=C(NCc1cccs1)c1ccc2c(c1)N(Cc1cccc(F)c1)C(=O)c1ccccc1S2	inactive: 3.83%	
CCOC(=O)c1noc2nc(C)n(CC(=O)NC(C)CC)c(=O)c12 (configuration not stated)	inactive: 4.43%	
CC(=O)c1cccc(NC(=O)CSc2nc(=O)n(Cc3ccco3)c3c2CCC3)c1	inactive: -0.255%	
CCOc1ccccc1CNC(=O)c1ccc2c(c1)N(Cc1ccc(C)cc1)CCS2	inactive: 3.04%	
CCCCN(CC)C(=O)c1nn(C)c2c1CSc1ccccc1-2	inactive: -81.8%	
Cc1oc(-c2cccc(Cl)c2)nc1CS(=O)(=O)CC(=O)NC(C)CCc1ccccc1 (configuration not stated)	inactive: -2.09%	
O=C(NCCc1ccccc1Cl)C1CCN(c2nc3ccccc3nc2C(F)(F)F)CC1	inactive: 0%	
COc1ccc(-n2c(-c3ccco3)nc3c(cnn3-c3ccc(Cl)cc3)c2=O)cc1	inactive: 1.77%	
CC1(C)O[C@H]2[C@@H](O1)[C@@H](C(=O)Nc1ccccc1C(F)(F)F)O[C@@H]1OC(C)(C)O[C@@H]12	inactive: -0.385%	
O=C(CSc1ccc(-c2cccs2)nn1)Nc1ccccc1C(F)(F)F	inactive: -8.47%	
Cc1ccc(NC(=O)C2CCCN(C(=O)c3cnn(-c4ccc(F)cc4)c3-n3cccc3)C2)c(Cl)c1 (configuration not stated)	inactive: -0.849%	
Cc1ccccc1CNC(=O)C(C)N(c1ccccc1)S(C)(=O)=O (configuration not stated)	inactive: -3.97%	
O=C(CCC1N=C2c3ccccc3N=C(SCc3ccc(F)cc3)N2C1=O)NCCc1ccccc1 (configuration not stated)	inactive: 0.317%	
COc1ccc(Cl)cc1NC(=O)C(C)Sc1nc2c(c(=O)[nH]1)CCCC2 (configuration not stated)	inactive: 6.95%	
CCOC(=O)c1cc(S(=O)(=O)Nc2cc(F)ccc2C)[nH]n1	inactive: -3.53%	
CCCc1nn2c(=O)cc(COC(=O)c3ccccc3NC(=O)COc3ccccc3)nc2s1	inactive: 0%	
COc1ccc(-c2cc(C(F)(F)F)n3nc(-c4ccccc4)cc3n2)cc1OC	inactive: -6.57%	
CCc1ccc(NC(=O)Cn2c(=O)n(CCC(C)C)c(=O)c3cccnc32)cc1	inactive: -15.8%	

SMILES	activity change, negative = inhibition	Potency
CC(=O)Nc1nonc1-c1nnc(SCc2ccccc2F)n1C	inactive: -2.3%	
CCc1ccccc1NS(=O)(=O)c1ccc2c(c1)CC(=O)N2	inactive: -6.44%	
Cc1ccc(/C=C/c2onc(C)c2S(=O)(=O)N2CCC(C(=O)Nc3ccccc3C(F)(F)F)CC2)cc1	inactive: -0.0481%	
CC(=O)c1ccc(N2CCN(c3ncnc4c3c(-c3ccccc3)cn4-c3ccc(Cl)cc3)CC2)cc1	inactive: 15.8%	
CCCCSc1nnc2n(-c3ccc(OC)cc3)c(=O)c3c4c(sc3n12)COC(C(C)C)C4 (configuration not stated)	inactive: -0.0267%	
COc1cccc(CNC(=O)Cn2nc(-c3ccc(Cl)cc3)ccc2=O)c1	inactive: -15.4%	
CC(=O)c1ccc(NC(=O)c2cc(C)nc3c2c(C)nn3-c2ccc(C)cc2)cc1	inactive: -0.72%	
COc1ccc(-n2c(=O)c3c(c4cc(OC)ccc4n3C)n(Cc3cccc(C)c3)c2=O)cc1	inactive: -1.67%	
COc1ccc2c(c1)c(=O)c(S(=O)(=O)c1ccccc1)cn2CC(=O)Nc1ccc(C)c(Cl)c1	inactive: 0.453%	
COc1ccc(-n2cc(C(=O)NCCc3cc(OC)ccc3OC)c3ccccc3c2=O)cc1	inactive: 10.7%	
CCC(C(=O)Nc1cccc(-c2nc3cccnc3s2)c1C)c1ccccc1 (configuration not stated)	inactive: -9.82%	
CCOC(=O)c1c(C)[nH]c(C)c1S(=O)(=O)N1CCCC(C(=O)NCc2ccc(N(C)C)cc2)C1 (configuration not stated)	inactive: 6.11%	
CC(C)CC(=O)Nc1nnc(S(=O)(=O)N(C)Cc2ccc(Cl)cc2)s1	inactive: -0.253%	
CNC(=O)CSc1cn(CC(=O)N2CCCCCC2)c2ccccc12	inactive: 0.316%	
CC1=C(C(=O)Nc2ccc(C)cc2C)C(c2cccs2)n2nc(SCc3cccc(C)c3)nc2N1 (configuration not stated)	inactive: 1.31%	
COc1ccc(OC)c(NC(=O)CN2C(=O)CC(C)Sc3ccccc32)c1 (configuration not stated)	inactive: -5.98%	
O=C(CCOc1ccccc1)N(Cc1cccnc1)c1nc2ccc(Cl)cc2s1	inactive: -0.351%	
CCOc1ccc(NC(=O)CSc2oc(-c3ccc(F)cc3)nc2S(=O)(=O)c2ccc(C)cc2)cc1		active: 2.93 µM
Cc1ccc(CN(Cc2ccco2)C(=O)c2oc3cc(Br)ccc3c2C)cc1	inactive: -3.34%	
Clc1ccccc1-c1nnc(COc2ccccc2)o1	inactive: -0.397%	
Cc1nc2nc(NC(=O)c3ccc(C(C)(C)C)cc3)[nH]n2c(=O)c1Cc1ccccc1	inactive: 1.44%	
Cc1ccc(-n2c(=O)c3c4c(sc3n(Cc3cc(=O)n5ccccc5n3)c2=O)CCC4)cc1C	inactive: -5.31%	
COc1ccc(CNC(=O)Cn2ccc3cc(S(=O)(=O)N4CCCCC4)ccc32)cc1OC	inactive: -12.1%	
